Measured values from PubChem BioAssay AID743279 (National Center for Advancing Translational Sciences (NCATS), 2014).
The whole screen tested about 360,000 compounds, of which about 17,000 (4.7%) were called active. The inconclusive results got no clear call from the source; some entries with a clear call stand among them for comparison. Cut-off read from the data, not from the text of the source: active = activity change below about -50%; inconclusive = mostly about -30% to -49%; inactive = weaker than that.

Assay: qHTS for Inhibitors of Inflammasome Signaling: IL-1-beta AlphaLISA Primary Screen
Details: THP-1 LPS/ATP IL-1B secretion, 16 h; at 57.5 µM, active compounds read low
Summary of the method: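 Secreted IL-1B measured by AlphaLISA bead assay after 16 h compound exposure of THP-1 cells; compounds (final up to 57.5 uM) added 1 h before LPS (250 ng/mL) and ATP (1.25 mM) stimulation; lower signal means less secretion.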
% is set by controls: 0 for no effect and ±100 for the full control effect.

Question: Which activity change does the source give for `OC(COc1ccccc1Cl)CN1CCN(CC(O)COc2ccccc2Cl)CC1` (stereo not given) here?
Answer: inconclusive: -33.9%

Question: Which activity change does the source give for `COc1cc(/C=C/C(=O)OCC(=O)NC(C)c2ccccc2)cc(OC)c1OC` (stereo not given) here?
Answer: inconclusive: -33.9%

Question: With `CCCCNC(=S)N(CCN(CC)CC)Cc1cc2cc3c(cc2[nH]c1=O)OCCO3` as the compound, how does the activity change read?
Answer: inconclusive: -35.5%

Question: With `CS(=O)(=O)Nc1ccc(C2=NN(C(=O)c3ccccc3)C(c3cccs3)C2)cc1` (stereo not given) as the compound, how does the activity change read?
Answer: inconclusive: -43.7%

Question: For `Cc1ccc(-c2ccc(/C=C(\C#N)C(N)=S)o2)c([N+](=O)[O-])c1`, which activity change is on record?
Answer: inconclusive: -49.5%

Question: For `CC(C)CNC(=O)c1cccc(NC(=O)c2ccc(Cl)c([N+](=O)[O-])c2)c1`, which activity change is on record?
Answer: active: -112%

Question: For `NC(=S)N/N=C/c1ccc(-n2nncc2-c2ccc(Cl)cc2)cc1`, which activity change is on record?
Answer: active: -70.2%

Question: With `CC(O)CNc1nc2c(c(=O)n(Cc3ccc(Cl)cc3)c(=O)n2C)n1C` (stereo not given) as the compound, how does the activity change read?
Answer: inactive: -10.5%

Question: For `COC(=O)c1c(NC(=O)C2CCCCC2)sc2c1CC(C)(C)NC2(C)C`, which activity change is on record?
Answer: inconclusive: -38.2%

Question: For `COc1ccc(-c2nn(-c3ccccc3)cc2CNC[C@H]2O[C@@H](n3cnc(C(N)=O)n3)[C@H](O)[C@@H]2O)cc1`, which activity change is on record?
Answer: inconclusive: -46.8%

Question: With `CC(C)OC(=O)CSc1nnc(C2CCCCC2)n1N` as the compound, how does the activity change read?
Answer: inactive: 0%

Question: Which activity change does the source give for `COc1ccc(NC(=S)N/C(=N/CS(=O)(=O)c2ccccc2)c2ccccc2)cc1` here?
Answer: inactive: -1.42%

Question: For `Oc1ccc(Cl)cc1C1=NCCNC(C(F)(F)C(F)F)=C1`, which activity change is on record?
Answer: inconclusive: -31.9%

Question: For `O=C1N/C(=N/S(=O)(=O)Cc2ccccc2)S/C1=C/c1ccc2c(c1)OCO2`, which activity change is on record?
Answer: inconclusive: -32.4%

Question: With `CCCCCCCCN1C(=O)[C@H](CC(=O)NCc2cccs2)C[C@@]2(C(=O)OCC)CCCC=C12` as the compound, how does the activity change read?
Answer: active: -61.9%

Question: With `O=C(C=C1SCCS1)/C=C/c1ccco1` as the compound, how does the activity change read?
Answer: active: -92%

Question: Which activity change does the source give for `Cc1cc(C(F)F)n2nc(C(=O)Nc3cccnc3Cl)nc2n1` here?
Answer: inactive: 19.5%

Question: With `Cc1ccccc1NC(=O)Cc1nc(CN(C)CC(=O)Nc2cccc(F)c2)cs1` as the compound, how does the activity change read?
Answer: inconclusive: -33.8%

Question: Which activity change does the source give for `COc1ccc(NC(=O)Nc2ccc3c(c2)C(=O)N([C@@H](C)CO)C[C@@H](C)[C@@H](CN(C)S(=O)(=O)c2cccs2)O3)cc1` here?
Answer: inactive: -20.7%

Question: Which activity change does the source give for `COc1ccc(-n2cc(C(=O)c3cc4ccccc4oc3=O)c(C(C)=O)n2)cc1` here?
Answer: inconclusive: -36.1%

Question: Which activity change does the source give for `CC1CCCN(c2ccc(C(=O)Nc3ccc4c(c3)OCO4)cc2[N+](=O)[O-])C1` (stereo not given) here?
Answer: active: -66%

Question: For `Clc1ccc(-c2nnc(NCCN3CCCC3)c3ccccc23)cc1`, which activity change is on record?
Answer: inconclusive: -44.7%

Question: With `O=C(CN1CCN(S(=O)(=O)/C=C/c2ccccc2)CC1)Nc1ccccc1N1CCOCC1` as the compound, how does the activity change read?
Answer: inconclusive: -46.2%

Question: For `CCc1ccc(-c2ccc3nnc(SCC(=O)NCC4CCCO4)n3n2)cc1` (stereo not given), which activity change is on record?
Answer: inconclusive: -35.4%

Question: With `COc1ccccc1NS(=O)(=O)c1cc(NC(C)=O)ccc1N1CCCCC1` as the compound, how does the activity change read?
Answer: inconclusive: -47.8%

Question: For `Cc1c(Cc2ccccc2)c(=O)oc2cc(OCc3ccc(C(=O)O)cc3)ccc12`, which activity change is on record?
Answer: inactive: -13.6%

Question: With `C/C(CC(=O)Nc1ccc([N+](=O)[O-])cc1)=N/NC(=O)C1C2CCCCC21` (stereo not given) as the compound, how does the activity change read?
Answer: inconclusive: -35.1%

Question: Which activity change does the source give for `CC(CCCN1CCCC1)Nc1ccnc2cc(Cl)ccc12` (stereo not given) here?
Answer: inconclusive: -49.3%

Question: Which activity change does the source give for `CCC(=O)N1CCc2cc(S(=O)(=O)Nc3ccc4c(c3)OCCO4)ccc21` here?
Answer: inconclusive: -48.1%

Question: For `COc1ccc(-c2nnc3c4ccccc4c(C)nn23)cc1`, which activity change is on record?
Answer: inactive: 19.2%

Question: Which activity change does the source give for `COc1ccc(CN2C[C@H]3CON(C)[C@H]3C[C@H]2c2ccc(-c3ccccc3)cc2)cc1` here?
Answer: inactive: -2.34%

Question: With `CCC1CCCCN1CCCNC(=O)C1CCN(Cc2nc(-c3ccc(Cl)cc3)oc2C)CC1` (stereo not given) as the compound, how does the activity change read?
Answer: active: -90.3%

Question: Which activity change does the source give for `COc1ccc(Br)cc1CN(C)CC(=O)Nc1c(Cl)cccc1Cl` here?
Answer: inconclusive: -38%

Question: Which activity change does the source give for `Cc1ccc(N=Nc2c(N)nn(-c3ccccc3)c2N)cc1` here?
Answer: inactive: 0%

Question: With `Cc1ccccc1C(=O)NC1CC2CCCC(C1)N2Cc1ccc(Cl)cc1` (stereo not given) as the compound, how does the activity change read?
Answer: inconclusive: -41%

Question: Which activity change does the source give for `CCc1sc(C(=O)N2CCc3cc(OC)c(OC)cc3C2CC(=O)O)cc1C` (stereo not given) here?
Answer: inactive: 4.98%

Question: Which activity change does the source give for `O=C(CN1CCC(n2nnc3cc(F)ccc32)CC1)Nc1ccc2c(c1)CCC2` here?
Answer: inconclusive: -39.7%

Question: With `O=C(NCCO)c1cc2c([nH]c3ccccc32)c(-c2ccc(F)cc2)n1` as the compound, how does the activity change read?
Answer: active: -93.4%

Question: Which activity change does the source give for `CC[n+]1c(-c2ccc(C)cc2)csc1Nc1c(C)n(C)n(-c2ccccc2)c1=O` here?
Answer: inconclusive: -33.5%

Question: For `N#CC(CC(=O)c1ccc(F)cc1)c1ccc2c(c1)OCO2` (stereo not given), which activity change is on record?
Answer: inconclusive: -48.9%

Question: With `O=C(c1cc(-c2ccc3c(c2)OCO3)on1)N1CCCCC1` as the compound, how does the activity change read?
Answer: inactive: -20.5%

Question: For `COc1cccc(CNc2nc3cc(-c4ccccc4)sc3c(=O)n2C)c1OC`, which activity change is on record?
Answer: inactive: -3.8%

Question: With `COc1ccc(C2c3ccc4ccccc4c3Oc3ncn(CCN4CCOCC4)c(=N)c32)cc1OC` (stereo not given) as the compound, how does the activity change read?
Answer: active: -52.4%

Question: With `COc1ccccc1CNC(=O)CCN=C1NS(=O)(=O)c2ccccc21` as the compound, how does the activity change read?
Answer: inactive: 10.7%

Question: With `O=[N+]([O-])c1ccc(Oc2cccnc2)c([N+](=O)[O-])c1` as the compound, how does the activity change read?
Answer: active: -112%

Question: Which activity change does the source give for `C/C(=N\Nc1ccc([N+](=O)[O-])cc1)c1ccc2c(c1)OCO2` here?
Answer: inactive: -16.6%

Question: Which activity change does the source give for `CCOC(=O)CSc1n[nH]c(=O)n1CCc1ccccc1` here?
Answer: inactive: -11.7%

Question: For `Cc1ccc(CNC(=O)CSc2nc(N3CCCCC3)nc(N3CCCCC3)n2)cc1`, which activity change is on record?
Answer: inactive: 0%

Question: For `O=[N+]([O-])c1cccc(SSc2cccc([N+](=O)[O-])c2)c1`, which activity change is on record?
Answer: inconclusive: -38.5%

Question: With `Cc1ccc(C)c(OCCC(=O)NNC(=O)c2ccccc2)c1` as the compound, how does the activity change read?
Answer: inactive: -5.04%

Question: With `COc1ccc(C(CCNCc2ccc(N(C)C)cc2)C(C)C)cc1` (stereo not given) as the compound, how does the activity change read?
Answer: active: -100%

Question: For `COc1ccc(C(CNC(=O)CSc2ccc(Br)cc2C)N2CCOCC2)cc1` (stereo not given), which activity change is on record?
Answer: inactive: -17%

Question: Which activity change does the source give for `CC(Sc1nncn1-c1ccccc1)C(=O)Nc1cccc([N+](=O)[O-])c1` (stereo not given) here?
Answer: inactive: -10.2%

Question: Which activity change does the source give for `CC(C)C(c1nnnn1C(C)(C)C)N1CCOCC1` (stereo not given) here?
Answer: inactive: 5.16%

Question: Which activity change does the source give for `O=C(O)c1cc([N+](=O)[O-])ccc1NCc1ccccc1` here?
Answer: active: -69.9%
